Results reported in the supplement of paper PMC12217912.
The other results are listed elsewhere or left out. The full chains were built here from the parent and the listed change. Values near 0.05 are background.

B1: TEV protease; numbered along this chain (parent)
chain: MGESLFKGPRDYNPISSSICHLTNESDGHTTSLYGIGFGPFIITNKHLFRRNNGTLVVQSLHGVFKVKDTTTLQQHLVDGRDMIIIRMPKDFPPFPQKLKFREPQREERICLVTTNFQTKSMSSMVSDTSCTFPSGDGIFWKHWIQTKDGQCGSPLVSTRDGFIVGIHSASNFTNTNNYFTSVPKNFMELLTNQEAQQWVSGWRLNADSVLWGGHKVFMVKPEEPFQPVKEATQL

Variants of: B1
Test: raw area under fraction-flipped curve 0-4 h after induction (AUC4h, not background-subtracted), DNA-recorder readout of cleavage of the substrate (dimensionless); higher = more cleavage of the substrate by the protease variant
Settings: temperature: 34 °C; time window: 0-4 h after rhamnose induction
Experimental: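 In vivo DNA recorder in E. coli TOP10(DE3) ΔrhaA at 34 °C. Each TEVp single-site mutant (parent TEVp 0) is paired with a single-site variant of the 7-mer TEVs (canonical ENLYFQ|S). The substrate sits between flexible linkers in a Bxb1-sfGFP-TEVs-SsrA fusion, so cleavage stabilises Bxb1 and speeds flipping of a recombination array, read by NGS. The value is the raw area under the fraction-flipped curve over 0-4 h after rhamnose induction (AUC4h), with ≥20 reads per time point. It is not background-subtracted; inactive controls average about 0.047.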
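Further: Bxb1 expression induced with 0.2% (w/v) L-rhamnose at OD600 near 0.5, cultures sampled hourly, flipped fraction per protease–substrate barcode pair counted by paired-end Illumina sequencing.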

Variant: Q118S
- area with substrate ENLYFAS: 0.0457
- area with substrate ENLYFFS: 0.0686
- area with substrate ENLYFGS: 0.0418
- area with substrate ENLYFHS: 0.0599
- area with substrate ENLYFIS: 0.0464
- area with substrate ENLYFKS: 0.0828
- area with substrate ENLYFNS: 0.0904
- area with substrate ENLYFPS: 0.0408
- area with substrate ENLYFTS: 0.0635
- area with substrate ENLYFYS: 0.0095

Variant: D161T
- area with substrate ENLYFAS: 0.0571
- area with substrate ENLYFCS: 0.0543
- area with substrate ENLYFDS: 0.0604
- area with substrate ENLYFES: 0.0654
- area with substrate ENLYFFS: 0.0765
- area with substrate ENLYFHS: 0.055
- area with substrate ENLYFIS: 0.0635
- area with substrate ENLYFKS: 0.0495
- area with substrate ENLYFMS: 0.06
- area with substrate ENLYFNS: 0.0751
- area with substrate ENLYFPS: 0.0515
- area with substrate ENLYFRS: 0.0507
- area with substrate ENLYFTS: 0.0635
- area with substrate ENLYFVS: 0.048
- area with substrate ENLYFWS: 0.0693
- area with substrate ENLYFYS: 0.0593

Variant: I110Q
- area with substrate ENLYFAS: 0.0595
- area with substrate ENLYFDS: 0.0428
- area with substrate ENLYFES: 0.0586
- area with substrate ENLYFFS: 0.067
- area with substrate ENLYFGS: 0.0533
- area with substrate ENLYFIS: 0.0618
- area with substrate ENLYFKS: 0.0557
- area with substrate ENLYFLS: 0.0579
- area with substrate ENLYFMS: 0.0632
- area with substrate ENLYFNS: 0.0444
- area with substrate ENLYFPS: 0.0506
- area with substrate ENLYFTS: 0.0426
- area with substrate ENLYFWS: 0.0455
- area with substrate ENLYFYS: 0.0517

Variant: D149K
- area with substrate ENLYFAS: 0.0779
- area with substrate ENLYFCS: 0.0672
- area with substrate ENLYFDS: 0.0548
- area with substrate ENLYFES: 0.0993
- area with substrate ENLYFFS: 0.0667
- area with substrate ENLYFGS: 0.0432
- area with substrate ENLYFIS: 0.0525
- area with substrate ENLYFKS: 0.0726
- area with substrate ENLYFMS: 0.0686
- area with substrate ENLYFNS: 0.0527
- area with substrate ENLYFPS: 0.0643
- area with substrate ENLYFRS: 0.0568
- area with substrate ENLYFSS: 0.0609
- area with substrate ENLYFTS: 0.0593
- area with substrate ENLYFWS: 0.059

Variant: D149N
- area with substrate ENLYFAS: 0.0362
- area with substrate ENLYFDS: 0.0803
- area with substrate ENLYFES: 0.0751
- area with substrate ENLYFFS: 0.0696
- area with substrate ENLYFGS: 0.0544
- area with substrate ENLYFIS: 0.0656
- area with substrate ENLYFKS: 0.0651
- area with substrate ENLYFLS: 0.0426
- area with substrate ENLYFMS: 0.0672
- area with substrate ENLYFNS: 0.0688
- area with substrate ENLYFPS: 0.0575
- area with substrate ENLYFRS: 0.0566
- area with substrate ENLYFSS: 0.0617
- area with substrate ENLYFTS: 0.0701
- area with substrate ENLYFVS: 0.0522
- area with substrate ENLYFWS: 0.0402
- area with substrate ENLYFYS: 0.0522

Variant: S135Y
- area with substrate ENLYFAS: 0.0716
- area with substrate ENLYFCS: 0.0567
- area with substrate ENLYFES: 0.0578
- area with substrate ENLYFFS: 0.0762
- area with substrate ENLYFGS: 0.0432
- area with substrate ENLYFHS: 0.0528
- area with substrate ENLYFIS: 0.0515
- area with substrate ENLYFKS: 0.0576
- area with substrate ENLYFLS: 0.0471
- area with substrate ENLYFMS: 0.0585
- area with substrate ENLYFNS: 0.0531
- area with substrate ENLYFPS: 0.0642
- area with substrate ENLYFRS: 0.0685
- area with substrate ENLYFSS: 0.0619
- area with substrate ENLYFTS: 0.063
- area with substrate ENLYFVS: 0.0607

Variant: T115W
- area with substrate ENLYFAS: 0.0558
- area with substrate ENLYFDS: 0.0594
- area with substrate ENLYFFS: 0.0694
- area with substrate ENLYFIS: 0.0671
- area with substrate ENLYFLS: 0.0518
- area with substrate ENLYFMS: 0.0554
- area with substrate ENLYFNS: 0.0805
- area with substrate ENLYFPS: 0.0756
- area with substrate ENLYFTS: 0.0431
- area with substrate ENLYFVS: 0.0532

Variant: S124D
- area with substrate ENLYFAS: 0.0517
- area with substrate ENLYFCS: 0.0633
- area with substrate ENLYFES: 0.0674
- area with substrate ENLYFFS: 0.0696
- area with substrate ENLYFGS: 0.0801
- area with substrate ENLYFHS: 0.0606
- area with substrate ENLYFIS: 0.061
- area with substrate ENLYFKS: 0.0633
- area with substrate ENLYFLS: 0.0616
- area with substrate ENLYFMS: 0.0726
- area with substrate ENLYFPS: 0.0543
- area with substrate ENLYFSS: 0.0601
- area with substrate ENLYFWS: 0.0651
- area with substrate ENLYFYS: 0.0553

Variant: S124M
- area with substrate ENLYFAS: 0.0853
- area with substrate ENLYFCS: 0.0591
- area with substrate ENLYFDS: 0.0679
- area with substrate ENLYFES: 0.0622
- area with substrate ENLYFFS: 0.0761
- area with substrate ENLYFIS: 0.0642
- area with substrate ENLYFKS: 0.0681
- area with substrate ENLYFLS: 0.0344
- area with substrate ENLYFMS: 0.0375
- area with substrate ENLYFPS: 0.0682
- area with substrate ENLYFTS: 0.0878
- area with substrate ENLYFVS: 0.0493
- area with substrate ENLYFWS: 0.0632
- area with substrate ENLYFYS: 0.0544

Variant: S124Q
- area with substrate ENLYFAS: 0.0628
- area with substrate ENLYFCS: 0.0597
- area with substrate ENLYFES: 0.0758
- area with substrate ENLYFFS: 0.0632
- area with substrate ENLYFIS: 0.0627
- area with substrate ENLYFKS: 0.0829
- area with substrate ENLYFMS: 0.0641
- area with substrate ENLYFNS: 0.0572
- area with substrate ENLYFPS: 0.0567
- area with substrate ENLYFWS: 0.0616
- area with substrate ENLYFYS: 0.0508

Variant: K142H
- area with substrate ENLYFAS: 0.0542
- area with substrate ENLYFCS: 0.0549
- area with substrate ENLYFES: 0.0694
- area with substrate ENLYFFS: 0.0675
- area with substrate ENLYFGS: 0.0556
- area with substrate ENLYFHS: 0.0677
- area with substrate ENLYFIS: 0.0588
- area with substrate ENLYFKS: 0.0601
- area with substrate ENLYFMS: 0.0701
- area with substrate ENLYFNS: 0.0675
- area with substrate ENLYFPS: 0.0599
- area with substrate ENLYFRS: 0.0472
- area with substrate ENLYFSS: 0.0596
- area with substrate ENLYFTS: 0.0621
- area with substrate ENLYFVS: 0.0748
- area with substrate ENLYFWS: 0.0489
- area with substrate ENLYFYS: 0.0612

Variant: S127A
- area with substrate ENLYFAS: 0.0502
- area with substrate ENLYFCS: 0.0577
- area with substrate ENLYFDS: 0.0587
- area with substrate ENLYFES: 0.0653
- area with substrate ENLYFFS: 0.0598
- area with substrate ENLYFGS: 0.0561
- area with substrate ENLYFHS: 0.0498
- area with substrate ENLYFIS: 0.0553
- area with substrate ENLYFKS: 0.0645
- area with substrate ENLYFLS: 0.0499
- area with substrate ENLYFMS: 0.07
- area with substrate ENLYFNS: 0.0723
- area with substrate ENLYFPS: 0.0651
- area with substrate ENLYFRS: 0.0628
- area with substrate ENLYFTS: 0.0358
- area with substrate ENLYFVS: 0.0545
- area with substrate ENLYFWS: 0.0511
- area with substrate ENLYFYS: 0.0604
